The record followed here is the supplement of paper PMC11383711.

B1: 01.h.02 (protein)
chain 1: EVQLLESGGGLVKRGGSLRLSCAASGFTFSAYGMSWVRQVPGGGLEWVSGVGGSGFGTDYADSVKGRFTISRDNSKNILYLQMNTLRAEDTAVYYCAKGVNWQPPYWYDYWGQGTLVTVSS
chain 2: DIVMTQDPVTLPVSLGERATIKCKSSQSVLSSSNNKNQLAWYQQRPGQPPKLLIYWASTRQSGVPERFSGSGSGTDFTLTVDVLLPEDVAVYYCQQYVSTPYTFGQGTKLEIK
B2: K77-2D02 (protein)
chain 1: EVQLVESGGGVVQPGGALRLSCAASGFTFSSYGMHWVRQAPGKGLEWVAYISYDGSEKTYADPLKGRFTIARDRSTNTLYLQMNRLRPEDTAVYHCARVKDSYYLEYWGQGTLVTVSS
chain 2: QSALTQPASVSGSPGQSITISCTGTSSDVGIYDLVSWYQQHPGKAPKLMIYEVNERPSGVSNRFSGSKSGNTASLTISGLQTEDEADYYCCSYAGSDTWVFGGGTKLT
B3: K77-1F06 (protein)
chain 1: QVLLVQSGPEVKKPGASVKVSCKASGYTFTASYMHWVRQAPGQGLEWMGVINPRHGNIAYAKKFLGRVTMTRDTSTSTVYMELTSLRSEDTAVYYCARDLREMDVPGPYGMDVWGQGTTVIVSS
chain 2: EIVLTQSPVTLSLSPGERATLSCRASQTISSSYLAWYQQKPGQAPRLLIYGTSSRATGIPDRFSGFGSGPDFTLTISRLESEDFAVYYCQQYGGSPPATFGQGTRVDIK
B4: W85-2A08 (protein)
chain 1: EVQLVESGGGLVKPGESLTLSCAASQFAFRDYAMNWVRQAPGRGLEWVSCINGNSRYTYYADSVRGRFAISRDNAGETLYLQLNSLRAEDTALYYCARGSFGPGSYYTFEHYHMDVWGKGTTVTVSS
chain 2: QSALTQPASVSGSPGEAITISCTGSTSDIENYNSVSWYQQHPGQAPKLIIYDVTNRPSGVPLRFSGSKSGNTASLTISGLQAEDEADYSCSSYSSTTSLYVFGSGTKVT

Some of the results follow. Binding of human antibodies (heavy:light variable regions, tested as scFv in one mRNA-display pool) to influenza hemagglutinin, with or without the stem antibody CR9114 bound first. Score = (mean enrichment − median) / interquartile range of that screen; higher = more enriched, 0 = typical non-binder. Active = above the paper's cut-off per screen: stems 28; unblocked H1 Solomon Islands 5, H1 Michigan 3, H3 5, H5 19, H7 2.85, both B 5; blocked 9, 7, H5 10, H7 10, B Phuket 10, B Lee 11.5. Scores are scaled within each screen and are no affinities; replicates correlate at about 0.6 to 0.9, and antibodies rare in the pool are noisier.

For one test, the target named is Influenza A H1N1 A/Michigan/45/2015 hemagglutinin ectodomain. The test is described as follows: mRNA display binding score; higher = more enriched on the antigen. As to conditions: antigen blocked with: 2 µM CR9114 IgG. As to the method: (§1)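 A pool of natively paired antibodies, displayed as scFv on mRNA, was selected once on antigen-coated beads and sequenced before and after; two replicates.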
Consider B1, for which the “mRNA display binding score” value is inactive: -0.145.

With B2, the “mRNA display binding score” value was inactive: -0.517.

On to B3, for which the “mRNA display binding score” value was inactive: 0.946.

As for B4, the “mRNA display binding score” value was inactive: 0.258.

Still in this test, the particulars now being: antigen blocked with: nothing.
Consider B1, for which the “mRNA display binding score” value was inactive: 0.288.

Regarding B2, the “mRNA display binding score” value is inactive: -0.629.

Take B3: the “mRNA display binding score” value is inactive: 0.295.

Turning to B4, the “mRNA display binding score” value was inactive: -0.00641.

A further test addresses Influenza A H1N1 A/Solomon Islands/3/2006 hemagglutinin ectodomain. Described as above. To be noted: antigen blocked with: 2 µM CR9114 IgG. How it is done:
as §1
As for B1, the “mRNA display binding score” value was inactive: -0.183.

As to B2, the “mRNA display binding score” value is inactive: -0.327.

Regarding B3, the “mRNA display binding score” value was inactive: 0.128.

As to B4, the “mRNA display binding score” value is inactive: 0.644.

Still in this test, the particulars now being: antigen blocked with: nothing.
As to B1, the “mRNA display binding score” value is inactive: 0.253.

As for B2, the “mRNA display binding score” value was inactive: -0.45.

For the molecule B3, the “mRNA display binding score” value is inactive: -0.126.

On to B4, for which the “mRNA display binding score” value was inactive: 0.292.

The next test has as its target Influenza A H3N2 A/Singapore/INFIMH-16-0019/2016 hemagglutinin ectodomain. The description is as above. As to conditions: antigen blocked with: nothing. How it is done:
as §1
In the case of B1, the “mRNA display binding score” value is active: 18.3.

B2: the “mRNA display binding score” value is inactive: -0.561.

With B3, the “mRNA display binding score” value is inactive: 0.411.

For the molecule B4, the “mRNA display binding score” value was inactive: 0.108.

The target in a further test is Influenza A H5N1 A/Qinghai/1A/2005 hemagglutinin ectodomain. Described as above. To be noted: antigen blocked with: 2 µM CR9114 IgG. How it is done:
as §1
For the molecule B1, the “mRNA display binding score” value was inactive: 0.0856.

B2: the “mRNA display binding score” value is inactive: -0.555.

Take B3: the “mRNA display binding score” value is inactive: 0.257.

In the case of B4, the “mRNA display binding score” value was inactive: 0.488.

Still in this test, the particulars now being: antigen blocked with: nothing.
Consider B1, for which the “mRNA display binding score” value is inactive: 0.116.

Regarding B2, the “mRNA display binding score” value was inactive: -0.0684.

In the case of B3, the “mRNA display binding score” value was inactive: 0.0455.

As to B4, the “mRNA display binding score” value is inactive: 1.41.

Another test has as its target Influenza A H7N9 A/Shanghai/2/2013 hemagglutinin ectodomain. The description is as above. As to conditions: antigen blocked with: 2 µM CR9114 IgG. How it is done:
as §1
For B1, the “mRNA display binding score” value is inactive: -0.698.

On to B2, for which the “mRNA display binding score” value is inactive: -0.692.

For B3, the “mRNA display binding score” value is inactive: 0.792.

As for B4, the “mRNA display binding score” value was inactive: -0.00195.

Still in this test, the particulars now being: antigen blocked with: nothing.
Regarding B1, the “mRNA display binding score” value was inactive: 0.38.

For the molecule B2, the “mRNA display binding score” value was inactive: -0.593.

Take B3: the “mRNA display binding score” value was inactive: 0.0622.

On to B4, for which the “mRNA display binding score” value is inactive: 0.293.

The next test has as its target Influenza B/Lee/1940 hemagglutinin ectodomain. The test is described as above. As to conditions: antigen blocked with: 2 µM CR9114 IgG. As to the method: as §1
Take B1: the “mRNA display binding score” value was inactive: -0.351.

For B2, the “mRNA display binding score” value was inactive: -0.261.

Take B3: the “mRNA display binding score” value was active: 16.3.

Consider B4, for which the “mRNA display binding score” value is active: 21.9.

The same test, now with this note: antigen blocked with: nothing.
For B1, the “mRNA display binding score” value was inactive: -0.0489.

For the molecule B2, the “mRNA display binding score” value is inactive: 1.18.

As for B3, the “mRNA display binding score” value is active: 20.7.

In the case of B4, the “mRNA display binding score” value is active: 78.5.

Another test deals with Influenza B/Phuket/3073/2013 hemagglutinin ectodomain. The description is as above. As to conditions: antigen blocked with: 2 µM CR9114 IgG. How it is done: as §1
Regarding B1, the “mRNA display binding score” value was inactive: -0.00129.

Consider B2, for which the “mRNA display binding score” value is inactive: 5.31.

With B3, the “mRNA display binding score” value was inactive: -0.0431.

Turning to B4, the “mRNA display binding score” value is active: 40.

Staying with this test, now noted: antigen blocked with: nothing.
In the case of B1, the “mRNA display binding score” value was inactive: 0.0904.

With B2, the “mRNA display binding score” value was active: 13.8.

B3: the “mRNA display binding score” value is inactive: -0.419.

Take B4: the “mRNA display binding score” value is active: 24.2.
